# According to PubChem BioAssay (NCI):
# Where a structure was tested more than once in an assay, its records may differ in their call.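 Values shown are percent growth following 48 h exposure of cells in 96-well plates to a single concentration of compound; below 10 was considered active.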 For part of its entries the source gives two or more results. The other results are left out here. There may be further records. The screen tested this drug many times, at its own concentration, as given; each value is one run. Counts like (3×) stand for listed records that agree.
# Test system: MDA-MB-435 melanoma
# Assay: NCI-60 one-dose screen, 48 h (100 = growth as untreated, 0 = no growth, -100 = all killed)
smiles,measurement,setting,value
COc1cccc2c1C(=O)c1c(O)c3c(c(O)c1C2=O)C[C@@](O)(C(=O)CO)C[C@@H]3OC1CC(N)C(O)C(C)O1 (stereo not given in full),growth,"0.25 µM, runs of 2013","inactive: 52, 51.3 (2×), 53.7, 50.3, 57.4, 59.7, 68.9, 67.7 (2×), 71.7 (2×), 62.6, 68.1, 61, 58.5, 65.8, 71.3 (2×), 65.7, 70.5 (3×), 68.6, 65.6, 69.9, 69, 74.1 (2×), 66.7, 69.4 (2×), 75.9, 73, 70.6 (2×), 70.8, 73.5 (2×), 71.4, 70.3 (2×), 73.9 (2×), 74.7, 77.1, 73.4, 72.2, 73.1, 75, 68 (2×), 75.2, 67.3, 68.5, 53, 59.8 (2×), 62.8, 52.3, 62, 62.1, 67.1, 53.9, 54.7, 56, 59.9%"
same,growth,"0.25 µM, runs of 2014","inactive: 58.7, 53.1, 60.9 (2×), 61.1, 59.8, 51.7, 56.5, 58.5, 56.6, 59.9 (3×), 46.4, 60.8, 55.1 (2×), 58.3 (2×), 68.6, 59.1, 68.7, 56, 69.1, 65.8, 66.5, 53.5, 55.9 (2×), 62.6, 61.2, 62.8 (2×), 67.2, 65.3, 66.7, 70.1, 62.9, 62.2, 64.2, 61.6, 72.2, 68, 62.3, 61.3, 63.3, 61.8, 54, 62.1, 57.8, 67.5, 54.2 (2×), 57.5, 68.9 (2×), 61, 56.3, 65, 63.4, 58.4, 69.6, 62.5, 63.5, 68.5, 63.7%"
same,growth,"0.25 µM, runs of 2015","inactive: 72.1, 64.2, 64.4 (2×), 58.6, 63.5 (2×), 67.1 (2×), 75.2, 63.4, 58.9 (3×), 68.7 (3×), 69.2 (2×), 63.1 (2×), 71.3, 59.6, 59.5, 66.9, 54.5, 62.2, 67.6, 61.8, 59.3 (2×), 56.3, 60.3, 64.6, 62.5, 64.9, 61.3 (2×), 63.2, 48.8, 67.7 (2×), 65.7, 61.4, 66.5 (2×), 48, 77.2, 63.7, 55.9, 46.6, 56.5, 79.7, 58.5, 62.1, 63.3, 60.9, 68.6, 71.4, 77.3, 69.1, 74.5, 71, 76.1, 76.4, 62.8, 70.1 (2×), 70.5, 69, 75.1, 75.8%"
same,growth,"0.25 µM, runs of 2016","inactive: 68.6 (2×), 63.5, 66.6 (2×), 66.9 (3×), 69.9 (3×), 67.3, 70.7 (2×), 59.1 (2×), 59.8, 56.5 (3×), 51.5 (2×), 61 (2×), 56.6, 54.1, 59.3, 66.5 (2×), 52.7, 57, 54.7, 61.5, 61.3, 64.4, 60.9 (2×), 64.6, 71.4, 67.6, 74.6, 74.4 (2×), 71.5, 77.1 (2×), 68.7, 62.2, 63.7, 61.6, 70.1 (2×), 69.6, 65.4, 71, 68.2, 74, 71.7, 75.9, 68.1, 72.6, 77.5, 76.5, 77.3, 71.8, 74.2, 80.4, 75.8, 68.9, 67.2, 68.4, 72.5, 69.4%"
same,growth,"0.25 µM, runs of 2017","inactive: 68.5 (2×), 66.3, 69.4, 65.6, 79.3, 78.7, 59.8 (2×), 68, 61.7 (2×), 57.9, 63.4, 62.5 (2×), 61.3 (3×), 55, 55.1, 59.5, 56.2, 54.8 (2×), 59.7, 58.8 (2×), 56.9, 62.2, 61 (2×), 60.7, 62.6 (2×), 56.3, 61.6, 63.2 (2×), 60.3 (3×), 56.4, 61.5, 65.4, 70.2, 58.7 (2×), 62.9, 62.3, 65.7, 64.6, 59.4 (2×), 68.9, 68.1, 62.8, 59.1, 68.2, 57.7, 56.6, 64.9, 59, 69.7, 69, 70.7, 69.1, 61.8, 66.6%"
same,growth,"0.25 µM, runs of 2018","inactive: 64.9, 68.2 (2×), 65.2 (2×), 67.5, 63.3 (2×), 70.9, 65.1, 61.5, 59.3, 65.4 (3×), 71.5, 73.3, 72.5, 80.6, 73.4, 70.3, 68.4 (2×), 67.2, 62.2 (2×), 64.6, 65.8 (2×), 69.2, 63.1, 63.5, 76, 70.8, 62.3, 69.6, 78, 61.4, 57.4, 63.2, 68.7, 73, 73.5, 62.7, 74.9, 45.5, 55.9%"
same,growth,"0.25 µM, runs of 2019","inactive: 51.8, 47.8 (2×), 52.9 (2×), 42.8, 54.1, 54 (2×), 52.2, 53.7, 55.1, 59.3, 56.5, 61, 60.6, 60.9, 55.3, 60.3, 50.9, 63.1, 68.3, 51.1, 67.6 (2×), 57.5, 56.8, 63.7, 59.7, 50.6, 50.8, 72.5 (2×), 71.2, 85.8, 70.9, 68.2, 62.8, 77.9, 76.7, 76.8, 66.9, 74.5, 61.1%"
same,growth,"0.25 µM, runs of 2020","inactive: 58.4, 81.1, 88.9, 89.8, 65.5, 61.9, 59.1, 64.9, 63.5, 75.1 (2×), 74.9, 65, 64.6, 68.7, 72.1, 75.2, 70.7, 71.5, 78.7, 66.6, 78, 81.4, 66.7%"
same,growth,"0.25 µM, runs of 2021","inactive: 71.5, 73, 73.5, 72.1, 66.9, 65 (2×), 56.9, 56.1, 62.8, 71.8, 61.5, 59.8, 66.6, 70.8, 59, 62.9, 60.8 (2×), 64.9 (2×), 62.2, 59.5 (2×), 57, 57.2, 59.9, 55.9, 61.2, 60.6, 53.4, 58.4 (2×), 58.5, 71.4, 65.1, 67.7, 55.2, 54.5, 47, 38.8, 57.5, 76.1, 65.5, 65.6%"
same,growth,"0.25 µM, runs of 2022","inactive: 18, 18.7, 54.7, 57.4, 10.4, 61.7, 36.4, 52.4, 58.8, 51.6, 57.9, 72.9, 65.3, 54.8, 57.6, 46.1, 84.2, 83.7 (2×), 59.8, 85.2, 88.9, 67.5, 59.6, 73%"
same,growth,"25 µM, runs of 1993","active: -95.9 (2×), -98.6, -59.6, -100 (4×), -95.7, -98.8, -86.8, -88, -96, -98.2, -98.1, -92.4, -84 (2×), -66.6, -74.8, -54.4, -75.9 (2×), -95.2, -90.9, -94.5, -98, -82.3, -60.6, -94.3 (2×), -63.2, -96.2, -73.6, -91.3, -98.9, -82.9, -99.4, -99.1, -93.7% and inactive: 100%"
same,growth,"25 µM, runs of 1994","active: -100 (6×), -99.5 (2×), -97.1, -94.3, -89.6, -99, -95.4, -76.9, -69, -96, -99.9, -89.1 (2×), -21.8, -99.6 (2×), -84.4, -70.9, -59.2, -94.9, -97.9, -97% and inactive: 66.7%"
same,growth,"25 µM, runs of 1995","active: -99.2 (2×), -97.9 (2×), -98, -87.2, -100 (8×), -93.2, -74.4, -96.7, -99.7 (2×), -79.7, -94, -98.7, -98.3, -99.8, -69.3, -91.5, -62.7, -84.2 (2×), -92.2, -66.8, -97.3, -99.3 (2×), -56.8, -93.5, -96, -93.4, -96.1, -77.8, -87.5%"
same,growth,"25 µM, runs of 1996","active: -98.5, -68.4, -98.3, -77.9, -73.1, -96.3, -94.7 (2×), -81.6, -81.5 (2×), -78.1, -77.8, -90.6, -87.9, -100 (6×), -75.9, -60.4, -68, -96.4, -71.5, -91.6, -95, -99.2, -58.8, -89.5, -74.4, -62.7, -75.5, -88.5, -99.6, -57.8, -78.7, -68.7, -67.3, -79.3, -98.8, -96.1, -88.3, -70.1, -99.8, -86.5, -99.3, -78.5, -60.5, -53.4, -69.7, -86, -84.3, -71.9% and inactive: 91.5%, 52.1%, 100%"
same,growth,"25 µM, runs of 1997","active: -94.8, -26, -89, -80.3, -74.6, -74.9, -44.8, -100 (4×), -85.4, -82.4, -98.1, -94.6, -76.6, -99.6, -89.4, -66.9, -97.6, -94.7, -69.9, -70.6, -98.4, -85.8, -58.9, -79, -99.1, -87.5, -82.2 (2×), -59.8, -75.3, -70.4, -94.9, -67, -51.4, -92.4, -67.7, -81.6, -89.1, -98%"
